Assay results as given in publication PMC6919601, “Identification of Plasmodium dipeptidyl aminopeptidase allosteric inhibitors by high throughput screening” (PLoS ONE, 2019).
Where “and” joins values, the source holds several entries; their conditions need not be identical. Equal values may be shown once. Out of some 110,000 compounds screened, about 230 (0.21%) showed an effect of 50% or more. The list shows a part of the results.

Biological target: DPAP1 (Plasmodium falciparum, UniProt Q8IIJ9)
Sequence (Q8IIJ9 whole entry, looked up): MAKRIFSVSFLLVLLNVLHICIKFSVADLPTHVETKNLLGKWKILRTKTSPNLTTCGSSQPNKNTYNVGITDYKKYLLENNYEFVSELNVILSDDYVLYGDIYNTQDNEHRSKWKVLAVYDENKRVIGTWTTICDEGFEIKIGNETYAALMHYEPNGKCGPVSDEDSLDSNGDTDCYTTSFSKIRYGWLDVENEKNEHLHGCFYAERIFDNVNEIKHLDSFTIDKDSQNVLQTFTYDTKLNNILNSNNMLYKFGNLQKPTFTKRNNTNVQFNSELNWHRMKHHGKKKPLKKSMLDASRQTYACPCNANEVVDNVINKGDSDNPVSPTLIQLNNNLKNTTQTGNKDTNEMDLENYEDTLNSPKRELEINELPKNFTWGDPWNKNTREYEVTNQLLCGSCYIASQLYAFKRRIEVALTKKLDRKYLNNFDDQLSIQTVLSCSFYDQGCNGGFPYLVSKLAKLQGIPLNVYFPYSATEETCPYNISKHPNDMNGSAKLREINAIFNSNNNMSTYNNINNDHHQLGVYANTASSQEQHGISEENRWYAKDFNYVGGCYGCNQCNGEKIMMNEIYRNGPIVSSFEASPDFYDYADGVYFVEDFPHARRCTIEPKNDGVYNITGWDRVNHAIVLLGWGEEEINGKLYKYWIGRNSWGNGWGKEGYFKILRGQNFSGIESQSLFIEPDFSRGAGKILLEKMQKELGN
Experiment: primary screen, percent inhibition; read by cleavage of a fluorogenic dipeptide substrate; higher = more effect of the substance
Parameters: species or system P. falciparum D10 trophozoite lysates; single well
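Also: 30 min substrate incubation versus DMSO and 10 µM JCP410 controls.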

| SMILES | % Inhibition @ 10 uM |
| --- | --- |
| COc1cccc(CNC(=O)CN(C)S(=O)(=O)c2c[nH]cn2)c1 | 3.24% |
| COc1ccc(-c2nc(-c3cccc4ccccc34)c(-c3ccccc3)[nH]2)cc1 | 3.18% and 3.48% |
| COc1cccc(NC(=O)COc2ccccc2C(C)C)c1 | 1.64% |
| CCC/N=c1\c(NC(=O)c2ccc(Cl)cc2)c(O)oc2ccccc12 | -0.984% |
| O=[N+]([O-])c1cc(C(F)(F)F)ccc1NS(=O)(=O)c1ccc(Cl)cc1 | -1.92% |
| CCC(C)c1ccccc1OCCOc1ccc(/C=C2/C(=N)N3OC(C)=CC3=NC2=O)cc1OC (stereo not shown) | -3.23% |
| C=CCOc1ccc(C2C3=C(N=C(C)/C2=C(/O)OC)c2ccccc2C3=O)cc1Cl (stereo not shown) | -0.169% |
| CCN(CC)C(=O)C1CCCN(Cc2cc(C(C)(C)C)c(O)c(C(C)(C)C)c2)C1 (stereo not shown) | -0.969% |
| CCC(Cc1ccccc1)NS(=O)(=O)c1cccc2nsnc12 (stereo not shown) | 0.457% |
| O=C(c1cccc(Br)c1)N1CCN(c2ccc([N+](=O)[O-])cc2)CC1 | 1.48% |
| COc1ccccc1-c1nc2s/c(=C\c3cc(OC)c(OC)c(OC)c3)c(=O)n2n1 | 2.24% |
| CCCCC(=O)N1CC(C)N(C(=O)CCCC)CC1C (stereo not shown) | 2.38% |
| CCc1ccc(N(CC(=O)NCc2cccnc2)S(C)(=O)=O)cc1 | -4.57% |
| COc1cc(/C(O)=C(\C#N)c2nc3ccccc3[nH]2)cc(OC)c1OC | 1.37% |
| CC(=O)Nc1ccc2c(c1)C(O)Cc1ccccc1S2 (stereo not shown) | -11.2% |
| O=C(COc1ccc(S(=O)(=O)NCc2ccccc2)cc1)NC1CCCCCC1 | 2.5% |
| Cc1cc(Cl)cc(C)c1OCCN1CCCC1 | -3.32% |
| Cc1ccc(Cc2nn3c(=O)/c(=C\c4sccc4C)sc3nc2=O)cc1 | 2.9% |
| COc1ccc(-c2cc(C(=O)O)c3ccccc3n2)cc1 | -2.37% |
| COC(=O)C1=CN(C(C)C)C=C(C(=O)OC)C1c1ccccc1OC | 4.99% |
| N=C(NOC(=O)COc1ccccc1)c1ccc(Br)cc1 | -1.26% |
| Cc1ccc2oc(-c3cccc(NC(=O)Cn4cnc5c(=O)n(C)c(=O)n(C)c54)c3)nc2c1 | 11.6% |
| CC(=O)N1N=C(c2ccccc2)CC1c1cccc(Br)c1 (stereo not shown) | 0.324% |
| COc1cccc2c1Oc1nc(-c3cccc(O)c3)nc(S)c1C2 | 49.7% |
| CCOC(=O)/C=C(\C)Sc1cc(=O)oc2ccccc12 | -5.46% and -2.98% |

| SMILES | % Inhibition @ 10 uM |
| --- | --- |
| Cc1cc(NCc2ccccc2)c2nncn2n1 | 6.73% |
| CN1CCN(c2ccc3nnc(CCC(=O)N4CCC(Cc5ccccc5)CC4)n3n2)CC1 | -2.84% |
| Fc1ccc(-c2nnc(-c3ccccc3Cl)o2)cc1 | 0.815% |
| O=C(Nc1cccc(NC(=O)C2CCCO2)n1)C1CCCO1 (stereo not shown) | 0.389% |
| CC1CCCCN1S(=O)(=O)c1ccc([N+](=O)[O-])cc1 (stereo not shown) | -3.04% |
| CC(C)Nc1ncnc2onc(-c3cccc(Cl)c3)c12 | -2.41% |
| C=CCN(Cc1nc(-c2cccc(C)c2)no1)S(=O)(=O)c1ccc(C)cc1 | 9.89% |
| O=C(O)CCn1cnc2onc(-c3ccc(F)cc3)c2c1=O | 6.64% |
| CCOc1ccc2nc(N(CCN(C)C)C(=O)c3ccc(Br)s3)sc2c1 | -2.22% |
| CCOC(=O)c1sc(N2C(=O)c3oc4ccccc4c(=O)c3C2c2ccc(C)o2)nc1C (stereo not shown) | 0.189% |
| O=C(c1ccco1)N1CCN(c2ncnc3onc(-c4ccc(Cl)cc4)c23)CC1 | -9.6% |
| CCN1CCCC1CNC(=O)C1c2ccccc2C(=O)N(CC(C)C)C1c1cccs1 (stereo not shown) | 0.589% |
| COc1ccc(/C=C2\N=C(c3ccc(C)cc3)OC2=O)cc1Br | 1.76% |
| O=c1oc2c(Cl)cc(Cl)cc2cc1-c1nc(-c2ccc([N+](=O)[O-])cc2)cs1 | -2.32% |
| CC(=O)N(C)c1ccc(NC(=O)/C=C\C(=O)O)cc1 | 1.63% |
| COC(=O)c1c(C(=O)OC)c2ccccn2c1C(=O)c1ccc([N+](=O)[O-])cc1 | -4.35% |
| O=C1C2CC3CC1CC(C(=O)O)(C3)C2 | 5.09% |
| COc1cc(OC)cc(C(=O)Nc2ccc(Br)c(C)c2)c1 | 5.99% |
| CCC(C)NC(=O)Cn1cc(S(=O)(=O)NC)c(S(=O)(=O)NC)c1 (stereo not shown) | -1.77% |
| Cc1ccccc1OCC(=O)Nc1ncccn1 | -6.94% |
| COC(=O)c1cc(C(O)c2ccc(C(=O)O)c(C(=O)OC)c2)ccc1C(=O)O | 3.06% |
| Cc1onc(-c2ccccc2)c1C1=N/C(=C/C(Cl)=C/c2ccccc2)C(=O)O1 | 8.06% |
| O=C(NCC1CCCO1)C1CCN(S(=O)(=O)c2c[nH]cn2)CC1 (stereo not shown) | 1.23% |
| CC1=C(C(=O)OC2CCCC2)C(c2ccccc2)C2=C(O)CCCC2=N1 (stereo not shown) | 2.92% |
| COc1cccc(/C=C(\C#N)c2nc(-c3cccs3)cs2)c1 | 0.815% |

| SMILES | % Inhibition @ 10 uM |
| --- | --- |
| CCS(=O)(=O)n1nc(-c2cccnc2)nc1NCc1ccc(F)cc1 | -4.75% |
| CCn1cc(CN(C)C(=O)CC23CC4CC(CC(C4)C2)C3)cn1 | 2.95% |
| Cc1ccc(C(=O)N2CCn3cccc3C2c2ccccc2)cc1 (stereo not shown) | -2.19% |
| CCOc1ccccc1/C=C1/SC(=O)N(CN2CCOCC2)C1=O | 1.92% |
| CN(C)CCn1c2ccccc2n2cc(C(C)(C)C)nc12 | -4.11% |
| O=C(NCCCO)c1cccc(Br)c1 | 3.01% |
| CC1=C(C(=O)Nc2ccc(Cl)cc2)C(c2ccccc2)NC(=O)N1 (stereo not shown) | 6.09% |
| COc1ccc(-c2c(C)nn3c(N)c(-c4ccc(Cl)cc4)cnc23)cc1 | -4.07% |
| COP(=O)(OC)C1(Nc2ccc(Cl)c(Cl)c2)CCCCC1 | 1.7% |
| COc1cc(OC)cc(C(=O)Nc2nc(-c3nnn(-c4ccc(Cl)cc4)c3C)ns2)c1 | 4.11% |
| CN(C)CCN(CCCc1ccccc1)Cc1ccccc1 | 1.88% |
| CC1(C(=O)O)CCC(C(=O)NCCc2ccccc2)C1(C)C (stereo not shown) | -6.29% |
| CCOC(=O)c1ccc(N2C(=O)C3CCCCC3C2=O)cc1 (stereo not shown) | 1.57% |
| c1csc(-c2nc(-c3ccc(-n4cccc4)cc3)no2)c1 | 4.19% |
| CCOC(=O)C1CCN(Cc2ccccc2Br)CC1 | -5.41% |
| O=C(O)Cn1cccc1/C=N\c1nnc(N2CCCCCC2)s1 | -2.14% |
| COc1cc2oc(=O)c(CC(=O)NCc3ccco3)c(C)c2cc1Cl | -2.57% |
| CCOC(=O)c1c(C)[nH]c(C)c1S(=O)(=O)NCCSCc1ccco1 | -7.66% |
| OCC1CCCCN1Cc1ccc(-c2ccccc2)cc1 (stereo not shown) | 5.01% |
| CN(C(=S)NC1CCS(=O)(=O)C1)C1CCCCC1 (stereo not shown) | 7.26% |
| Cc1noc2ncnc(NCCc3ccc(Cl)cc3)c12 | -2.34% |
| CCCCN(C)c1cc(C)nc2c(-c3ccc(Cl)cc3)c(C)nn12 | -0.971% |
| O=C(O)c1ccc(S(=O)(=O)N2CCOCC2)cc1 | -1.29% |
| COc1ccc(CNCc2cccc(OC)c2OC)cc1Br | 3.17% |
| Nc1ccc(-c2ccc3ccccc3n2)c2ccccc12 | 2.94% |

| SMILES | % Inhibition @ 10 uM |
| --- | --- |
| O=C(Nc1ccncc1)c1ccc2ccccc2c1 | -1.61% |
| Cc1ccc2c(c1)-c1onc(C(=O)NCc3ccco3)c1CO2 | 2.78% |
| NC(=O)c1ccc(-n2c(CCC(=O)O)ccc2-c2ccc(F)cc2)cc1 | -4.98% |
| COc1ccc(Cn2c(C(=O)O)c(CNCCc3ccc(C)cc3)c3ccc(OC)cc32)cc1 | 9.28% |
| N=C(NOC(=O)CCCc1ccccc1)c1ccc(Cl)cc1 | 0.275% |
| COc1cccc(CNC(=O)C2CCC(CNc3nc(S)nc4ccccc34)CC2)c1 (stereo not shown) | 9.31% |
| COc1ccc(-c2noc(-c3c(-c4ccccc4Cl)noc3C)n2)cc1 | 3.66% |
| Cc1ccc(-n2nc(C)c3c(C)c(CCC(=O)NCCCN4CCCC4=O)c(C)nc32)cc1 | -0.72% |
| CCCc1[nH]nc2c1C(c1ccc(N(C)C)cc1)C(C#N)=C(N)O2 (stereo not shown) | -2.87% |
| NC(=O)c1nnn(-c2nonc2N)c1CN1CCCCC1 | 2.8% |
| O=C1NC(=O)c2cc(-c3ccccc3)ccc21 | -1.77% |
| Cc1ccc(NC(=O)c2ccc(F)cc2)c(Br)c1 | 3.47% |
| Cc1oc(-c2ccccc2)nc1CS(=O)CC(=O)N(C)Cc1ccccc1 (stereo not shown) | -1.89% |
| Cc1oc(-c2ccccc2F)nc1CS(=O)CC(=O)NCCN1CCCCC1C (stereo not shown) | 0.475% |
| O=C(c1cc(-c2ccc3c(c2)OCO3)on1)N1CCN(Cc2ccccc2)CC1 | 2.4% |
| O=C(NCc1ccc2c(c1)OCO2)c1ccc(CS(=O)(=O)Cc2cccc(Cl)c2)o1 | 2.35% |
| CCN1C(=O)/C(=C/c2ccc(OC)cc2OC)S/C1=N/c1ccc(OC)cc1 | -1.55% |
| Cn1c(=O)c2c(nc(CN3CCN(C(=O)c4ccco4)CC3)n2CCCO)n(C)c1=O | 0.317% |
| O=C(NCCc1ccc(Cl)cc1)c1cc(-c2ccncc2)nc2ccccc12 | -2.26% |
| CCn1c2ccccc2c2cc(CNc3ccc(Cl)cc3)ccc21 | -3.35% |
| CN1CCC(NC(Cc2ccccc2)c2ccccc2)CC1 (stereo not shown) | 0.217% |
| CCN(CC)CCCOc1cccc(OC)c1 | 5.01% |
| C[C@@H](C[C@H](NC(=O)c1ccc(-c2ccccc2Cl)cc1)C(=O)NC1(C#N)CCOCC1)c1ccccc1 | -8.36% |
| COc1cc(/C=C2\N=C(c3cc(OC)c(OC)c(OC)c3)OC2=O)cc(OC)c1OC | 0.607% |
| CCC(C)NC(=O)c1cc(-c2ccc(C)s2)nc2ccccc12 (stereo not shown) | -1.27% |
